Measured values published in PubChem BioAssay AID1345083 (National Center for Advancing Translational Sciences (NCATS), 2018).
Several values for one entry are separate records, joined by “and”; a condition that tells them apart may be missing. Identical values can stand only once. Hit rate of the full screen: of about 94,000 compounds, about 6,200 (6.6%) were called active. Inconclusive results, whose numbers are uncertain, are shown with a selection of clear calls. Calls come from the whole dose curve; as a rule, active = well fitted inhibition curve with a large enough effect; inconclusive = small, poorly fitted or top-dose-only effect; inactive = flat fitted curve, though single readings scatter. A potency beside an inconclusive call is a rough fit, not a confirmed value.

Test: Cytotoxic Profiling in HEK 293 Cell Line of Diverse Libraries Using Quantitative High-Throughput Screening; note: nearly all actives have a fitted effect of over 60% in size
Details: HEK 293 viability, ATP luminescence (CellTiter-Glo), 48-72 h; activity change, negative = cytotoxicity: at 115 µM (top of the series) unless noted; series mostly up to 115 µM
Procedure, shortened: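 HEK 293 cells seeded at 250 cells/well were exposed to compound for 48 or 72 hr at 37 degree Celsius. Viability taken as ATP content by CellTiter-Glo luminescence.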
% is set by controls: 0 for no effect and ±100 for the full control effect; potency is the fitted concentration of half-maximal effect; tags give direction and shape of the fitted curve.

SMILES	Potency	activity change, negative = cytotoxicity
CC1(C)C[C@H]2C[C@@H](O)[C@H](N3CCN(c4cccc(Cl)c4)CC3)[C@]2(O)CO1	inconclusive: 39.8 µM [inhibitor, single point]	
COc1ccc(CCNC(=O)c2ccc3oc(-c4ccccn4)nc3c2)cc1	inconclusive: 79.4 µM [inhibitor, partial curve, poor fit]	
COc1ccc(CNc2nccc(-c3c(C)nn(C)c3C)n2)cc1OC	inconclusive: 79.4 µM [inhibitor, partial curve, poor fit]	
COC(=O)[C@H](Cc1ccc(OC)cc1)NC(=O)[C@H]1CN(S(=O)(=O)c2ccccc2)CCN1C(=O)NC1CCCCC1	inconclusive: 17.8 µM [inhibitor, full curve, poor fit]	
NC1(C(=O)N2CCCC(CCc3ccccc3F)C2)CCC1 (configuration not stated)	inconclusive: 79.4 µM [inhibitor, single point]	
CCCCCC(=O)N1CC[C@@H](CC(=O)NCc2ccc(F)cc2)[C@@H](CC)C1	inconclusive: 79.4 µM [inhibitor, partial curve, poor fit]	
O=c1[nH]c(C2CCCN(Cc3cccc(-c4ccsc4)c3)C2)nc2ccc(F)cc12 (configuration not stated)	active: 31.6 µM and active: 22.4 µM	
CNC(=O)N1CC(c2noc(C3CCCN3C(=O)NCCc3ccccc3)n2)C1 (configuration not stated)		inactive: -15.4%
CN(Cc1ccc2nccnc2c1)C(=O)c1ccc(CCC(C)(C)O)cc1	inconclusive: 50.1 µM [inhibitor, partial curve, poor fit]	
Cc1c(F)cccc1NC(=O)N1CCCC(c2noc(COc3ccccc3F)n2)C1 (configuration not stated)	inconclusive: 50.1 µM [inhibitor, partial curve, poor fit]	
Cc1cc(C)cc(-c2ccc(CN3CCCC(NC(=O)c4ccncc4)C3)cc2)c1 (configuration not stated)	active: 28.2 µM	
CC1CCC(NC(=O)c2cc3n(n2)CC(c2ccc(Cl)cc2)OC3)CC1 (configuration not stated)	inconclusive: 50.1 µM [inhibitor, partial curve, poor fit]	
CN(Cc1ccccc1C(F)(F)F)C(=O)Cc1cccc(Cl)c1	active: 79.4 µM	
CC(C)CNC(=O)c1cc(-c2ccc(F)cc2)nc2c1cnn2C	inconclusive: 70.8 µM [inhibitor, partial curve, poor fit]	
CCOc1ccc(NC(=O)N2CCc3c(c4ccccc4n3C)C2)cc1	inconclusive: 79.4 µM [inhibitor, partial curve, poor fit]	
Cc1cc(S(=O)(=O)N2CC(C(=O)NC3CCCCC3)C3(CCOCC3)C2)ccc1F (configuration not stated)		inactive: -7.87%
O=C(Cc1ccc(F)cc1)N1CCC2(CC1)CC(c1cccc(C(F)(F)F)c1)=NO2	active: 50.1 µM	
